Patent publication US20240101687A1 (ABL BIO, published 2024)

Legend:
[1] = target: T1, human IGF1R on cells (human, UniProt P08069 31-1367); assay: FACS on MCF-7 cells, 10 ug/mL (2nd Ab only: 2.86)
T1 construct: also called endogenous IGF1R on the cell surface (MCF-7, JIMT-1, BT474, SKBR3); IGF1R library on OVCAR3 cells

[2] = target: T2, human IGF1R extracellular domain, His-tagged (human, UniProt P08069 31-932); assay: ELISA on coated IGF1R, antibody titrated up to 400 nM; C of the 4-P fit
T2 construct: Bought (R&D Systems 391-GR or Sino Biological 10164-H08H); also called recombinant IGF1R; ECD of IGF1R

[3] = target: human alpha-synuclein aggregates (fibrils) (human, UniProt P37840); assay: ELISA, alpha-synuclein aggregates coated, antibody titrated up to 400 nM; C of the 4-P fit
[4] = target: T2, human IGF1R extracellular domain, …; assay: ELISA on ECD of IGF1R

GeoMean, Internalization at 37° C. [1] | EC50 [2] | EC50 [3] | EC50 [4] | Binder
7.34 | 0.649 nM | 4.27 nM | – | Hu11F11(ver.2)-1564 bivalent (bispecific antibody, human IgG1, kappa) heavy: EVQLVESGGGLVQPGGSLRLSCATSGFTFSDFYMEWVRQPPGKRLEWIAASRNKANDYTTEYSASVKGRFTVSRDDSKSSLYLQMNSLRAEDTAIYYCARDAHGKPFAYWGQGTTVTVSS[human IgG1 constant region not written out]GGGGSGGGGSGGGGSQSVLTQPPSASGTPGQRVTISCTGSSSNIGSNDVSWYQQLPGTAPKLLIYANSNRPSGVPDRFSGSKSGTSASLAISGLRSEDEADYYCGAWDDSLNGYVFGCGTKLTVLGGGGSGGGGSGGGGSGGGGSEVQLLESGGGLVQPGGSLRLSCAASGFTFSSYDMSWVRQAPGKCLEWVSAISYDNGNTYYADSVKGRFTISRDNSKNTLYLQMNSLRAEDTAVYYCAKGVLTTLMNWFDYWGQGTLVTVSS light: DIVMTQSPSSLAVSLGERVTMS[about 80 residues not written out][about 120 residues not written out]
– | – | 0.874 nM | – | hu11F11-1564(ver.3) (bispecific antibody) heavy: EVQLVESGGGLVQPGGSLRLSCATSGFTFSDFYMEWVRQPPGKRLEWIAASRNKANDYTTEYSASVKGRFTISRDTSKSSLYLQMNSLRAEDTAIYYCARDAHGKPFAYWGQGTTVTVSS[human IgG1 constant region not written out]GGGGSGGGGSGGGGSQSVLTQPPSASGTPGQRVTISCTGSSSNIGSNDVSWYQQLPGTAPKLLIYANSNRPSGVSDRFSGSKSGTSASLAISGLRSEDEADYYCGAWDDSLNGYVFGCGTKLTVLGGGGSGGGGSGGGGSGGGGSEVQLLESGGGLVQPGGSLRLSCAASGFTFSSYDMSWVRQAPGKCLEWVSAISYDNGNTYYADSVKGRFTISRDNSKNTLYLQMNSLRAEDTAVYYCAKGVLTTLMNWFDYWGQGTLVTVSS light: DIVMTQSPSSLAVSLGERVTMS[about 80 residues not written out][about 120 residues not written out]
5.01 | – | – | 6.06 nM | Hu11F11(ver.2)-VH9 bivalent (bispecific antibody, human IgG1, kappa) heavy: EVQLVESGGGLVQPGGSLRLSCATSGFTFSDFYMEWVRQPPGKRLEWIAASRNKANDYTTEYSASVKGRFTVSRDDSKSSLYLQMNSLRAEDTAIYYCARDAHGKPFAYWGQGTTVTVSS[human IgG1 constant region not written out]GGGGSGGGGSGGGGSQSVLTQPPSASGTPGQRVTISCTGSSSNIGSNDVSWYQQLPGTAPKLLIYANSNRPSGVPDRFSGSKSGTSASLAISGLRSEDEADYYCGAWDDSLNGYVFGCGTKLTVLGGGGSGGGGSGGGGSGGGGSEVQLLESGGGLVQPGGSLRLSCAASGFTFSSYDMSWVRQAPGKCLEWVSAISGDNGNTYYADSVKGRFTISRDNSKNTLYLQMNSLRAEDTAVYYCAKGVLTTLMNWFDYWGQGTLVTVSS light: DIVMTQSPSSLAVSLGERVTMS[about 80 residues not written out][about 120 residues not written out]
3.84 | – | – | 402 nM | Hu11F11(ver.2)-VH7 bivalent (bispecific antibody, human IgG1, kappa) heavy: EVQLVESGGGLVQPGGSLRLSCATSGFTFSDFYMEWVRQPPGKRLEWIAASRNKANDYTTEYSASVKGRFTVSRDDSKSSLYLQMNSLRAEDTAIYYCARDAHGKPFAYWGQGTTVTVSS[human IgG1 constant region not written out]GGGGSGGGGSGGGGSQSVLTQPPSASGTPGQRVTISCTGSSSNIGSNDVSWYQQLPGTAPKLLIYANSNRPSGVPDRFSGSKSGTSASLAISGLRSEDEADYYCGAWDDSLNGYVFGCGTKLTVLGGGGSGGGGSGGGGSGGGGSEVQLLESGGGLVQPGGSLRLSCAASGFTFSSYAMSWVRQAPGKCLEWVSAISYDNGSTYYADSVKGRFTISRDNSKNTLYLQMNSLRAEDTAVYYCAKGVLTTLMNWFDYWGQGTLVTVSS light: DIVMTQSPSSLAVSLGERVTMS[about 80 residues not written out][about 120 residues not written out]
– | – | – | 0.147 nM | Hu11F11(ver.2)-F06 (bispecific antibody) heavy: EVQLVESGGGLVQPGGSLRLSCATSGFTFSDFYMEWVRQPPGKRLEWIAASRNKANDYTTEYSASVKGRFTVSRDDSKSSLYLQMNSLRAEDTAIYYCARDAHGKPFAYWGQGTTVTVSS[human IgG1 constant region not written out]GGGGSGGGGSGGGGSQSVLTQPPSASGTPGQRVTISCTGSSSNIGSNDVSWYQQLPGTAPKLLIYANSNRPSGVPDRFSGSKSGTSASLAISGLRSEDEADYYCGTWAGSLNGYVFGCGTKLTVLGGGGSGGGGSGGGGSGGGGSEVQLLESGGGLVQPGGSLRLSCAASGFTFSSYDMSWVRQAPGKCLEWVSAISYDNGNTYYADSVKGRFTISRDNSKNTLYLQMNSLRAEDTAVYYCAKGVLTTLMNWFDYWGQGTLVTVSS light: DIVMTQSPSSLAVSLGERVTMS[about 80 residues not written out][about 120 residues not written out]
6.1 | – | – | 0.366 nM | Hu11F11(ver.2)-VH5 bivalent (bispecific antibody, human IgG1, kappa) heavy: EVQLVESGGGLVQPGGSLRLSCATSGFTFSDFYMEWVRQPPGKRLEWIAASRNKANDYTTEYSASVKGRFTVSRDDSKSSLYLQMNSLRAEDTAIYYCARDAHGKPFAYWGQGTTVTVSS[human IgG1 constant region not written out]GGGGSGGGGSGGGGSQSVLTQPPSASGTPGQRVTISCTGSSSNIGSNDVSWYQQLPGTAPKLLIYANSNRPSGVPDRFSGSKSGTSASLAISGLRSEDEADYYCGAWDDSLNGYVFGCGTKLTVLGGGGSGGGGSGGGGSGGGGSEVQLLESGGGLVQPGGSLRLSCAASGFTFSSYDMSWVRQAPGKCLEWVSAISGDNGSTYYADSVKGRFTISRDNSKNTLYLQMNSLRAEDTAVYYCAKGVLTTLMNWFDSWGQGTLVTVSS light: DIVMTQSPSSLAVSLGERVTMS[about 80 residues not written out][about 120 residues not written out]
3.19 | – | – | 135 nM | Hu11F11(ver.2)-VH2 bivalent (bispecific antibody, human IgG1, kappa) heavy: EVQLVESGGGLVQPGGSLRLSCATSGFTFSDFYMEWVRQPPGKRLEWIAASRNKANDYTTEYSASVKGRFTVSRDDSKSSLYLQMNSLRAEDTAIYYCARDAHGKPFAYWGQGTTVTVSS[human IgG1 constant region not written out]GGGGSGGGGSGGGGSQSVLTQPPSASGTPGQRVTISCTGSSSNIGSNDVSWYQQLPGTAPKLLIYANSNRPSGVPDRFSGSKSGTSASLAISGLRSEDEADYYCGAWDDSLNGYVFGCGTKLTVLGGGGSGGGGSGGGGSGGGGSEVQLLESGGGLVQPGGSLRLSCAASGFTFSSYAMSWVRQAPGKCLEWVSAISGSNGNTYYADSVKGRFTISRDNSKNTLYLQMNSLRAEDTAVYYCAKGVLTTLANWFDYWGQGTLVTVSS light: DIVMTQSPSSLAVSLGERVTMS[about 80 residues not written out][about 120 residues not written out]
3.24 | – | – | 121 nM | Hu11F11(ver.2)-VH32 bivalent (bispecific antibody, human IgG1, kappa) heavy: EVQLVESGGGLVQPGGSLRLSCATSGFTFSDFYMEWVRQPPGKRLEWIAASRNKANDYTTEYSASVKGRFTVSRDDSKSSLYLQMNSLRAEDTAIYYCARDAHGKPFAYWGQGTTVTVSS[human IgG1 constant region not written out]GGGGSGGGGSGGGGSQSVLTQPPSASGTPGQRVTISCTGSSSNIGSNDVSWYQQLPGTAPKLLIYANSNRPSGVPDRFSGSKSGTSASLAISGLRSEDEADYYCGAWDDSLNGYVFGCGTKLTVLGGGGSGGGGSGGGGSGGGGSEVQLLESGGGLVQPGGSLRLSCAASGFTFSSYAMSWVRQAPGKCLEWVSAISYDNGNTYYADSVKGRFTISRDNSKNTLYLQMNSLRAEDTAVYYCAKGVLTTLANWFDYWGQGTLVTVSS light: DIVMTQSPSSLAVSLGERVTMS[about 80 residues not written out][about 120 residues not written out]
7.28 | – | – | 0.167 nM | Hu11F11(ver.2)-VH35 bivalent (bispecific antibody, human IgG1, kappa) heavy: EVQLVESGGGLVQPGGSLRLSCATSGFTFSDFYMEWVRQPPGKRLEWIAASRNKANDYTTEYSASVKGRFTVSRDDSKSSLYLQMNSLRAEDTAIYYCARDAHGKPFAYWGQGTTVTVSS[human IgG1 constant region not written out]GGGGSGGGGSGGGGSQSVLTQPPSASGTPGQRVTISCTGSSSNIGSNDVSWYQQLPGTAPKLLIYANSNRPSGVPDRFSGSKSGTSASLAISGLRSEDEADYYCGAWDDSLNGYVFGCGTKLTVLGGGGSGGGGSGGGGSGGGGSEVQLLESGGGLVQPGGSLRLSCAASGFTFSSYDMSWVRQAPGKCLEWVSAISYDNGSTYYADSVKGRFTISRDNSKNTLYLQMNSLRAEDTAVYYCAKGVLTTLMNWFDSWGQGTLVTVSS light: DIVMTQSPSSLAVSLGERVTMS[about 80 residues not written out][about 120 residues not written out]
5.83 | – | – | 0.236 nM | Hu11F11(ver.2)-VH16 bivalent (bispecific antibody, human IgG1, kappa) heavy: EVQLVESGGGLVQPGGSLRLSCATSGFTFSDFYMEWVRQPPGKRLEWIAASRNKANDYTTEYSASVKGRFTVSRDDSKSSLYLQMNSLRAEDTAIYYCARDAHGKPFAYWGQGTTVTVSS[human IgG1 constant region not written out]GGGGSGGGGSGGGGSQSVLTQPPSASGTPGQRVTISCTGSSSNIGSNDVSWYQQLPGTAPKLLIYANSNRPSGVPDRFSGSKSGTSASLAISGLRSEDEADYYCGAWDDSLNGYVFGCGTKLTVLGGGGSGGGGSGGGGSGGGGSEVQLLESGGGLVQPGGSLRLSCAASGFTFSSYDMSWVRQAPGKCLEWVSAISGSNGNTYYADSVKGRFTISRDNSKNTLYLQMNSLRAEDTAVYYCAKGVLTTLMNWFDYWGQGTLVTVSS light: DIVMTQSPSSLAVSLGERVTMS[about 80 residues not written out][about 120 residues not written out]
